Measured values taken from PubChem BioAssay (NCI).
“And” between values parts separate entries of the source, which are not always exact repeats. Equal entries are not always repeated.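 1) Cells in 96-well plates. 2) Compound, 48 h, 5 concentrations. 3) Linear interpolation between surrounding doses. 4) Unreached endpoint = highest concentration. The concentration for 50% growth inhibition is given as GI50. At the TGI there is no net growth.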 Peptide text beside a SMILES is read from it.

Tested on: NCI-H322M lung
Assay: NCI tumour cell line growth inhibition, 48 h

Row | SMILES | TGI | GI50
1 | CN1CCc2cc(N)cc3c2C1Cc1ccc2c(c1-3)OCO2 (stereo unspecified) | > 73.7 µM | 
2 | Cc1nnc2n1N=C(c1cc(F)c(Cl)cc1Cl)/C(=C/c1ccc3c(c1)OCO3)S2 | > 100 µM | 
3 | Cc1nn(C)c2cc(N(C)c3ccnc(Nc4cccc(S(N)(=O)=O)c4)n3)ccc12 | > 25 µM | 7.89 µM
4 | Oc1cccc2c1[nH]c1c(C3=C[C@@]4(O)CC/C=C\CCCCN5CC[C@@H]3[C@]3(CC6/C=C\CCCCN6[C@H]34)C5)nccc12 (stereo partly specified) | 10.9 µM | 
5 | COC(=O)Cc1cc(=O)n2c([nH]c3ccccc32)c1C#N | > 100 µM | 
6 | COc1cnc2c(c1)C(=O)c1c-2n(CCCNC(C)C)c(=O)c2cc([N+](=O)[O-])ccc12 | 0.668 µM | 0.0546 µM
7 | FC(F)(F)c1cccc(C2SCc3nc4ccccc4n32)c1 (stereo unspecified) | > 100 µM | 
8 | O=c1[nH]c2cc([N+](=O)[O-])ccc2nc1/C=C(\O)c1ccc(Cl)cc1 | 37.5 µM | 
9 | COc1ccc(C2C3=C(COC3=O)Oc3cc4c(cc32)OCO4)cc1 (stereo unspecified) | > 100 µM | 
10 | O=C(NCCCCCCNC(=O)OCc1ccc2c(Cl)cc(Cl)c(O)c2n1)OCc1ccc2c(Cl)cc(Cl)c(O)c2n1 | 4.49 µM | 1.86 µM
11 | CC/C(SC)=[N+](\C)[O-] | > 100 µM | 
12 | COC(C)(C)[C@H](O)C(O)CC(C)[C@@H]1CCC23CC12CCC1[C@@]2(C)CCC(OC(C)=O)C(C)(C)C2CC(OC2OC(COC(C)=O)C(O)C(O)C2O)[C@]13C (stereo partly specified) | 7.44 µM and 7.97 µM | 3.17 µM
13 | Nc1nc(-c2ccc(Cl)cc2)cc(-c2ccccc2)c1-c1nc2ccccc2o1 | 20.9 µM | 4.8 µM
14 | COc1ccc(N=CN(C)C)c(C)c1 | > 100 µM | 
15 | CC1=CC(=O)/C(=C/n2c(=S)[nH]c3ccc([N+](=O)[O-])cc32)C(=O)O1 | > 100 µM | 
16 | O=S(=O)(Nc1ccccn1)c1ccc(N=Nc2ccc(O)c3ncccc23)cc1 | 8.84 µM | 1.76 µM
17 | C#CCCOC(=O)c1ccccc1OC(C)=O | > 100 µM | 
18 | O=C(COc1ccc(Cl)cc1Cl)N/N=C/C=C/c1ccc([N+](=O)[O-])o1 | > 100 µM | 
19 | C#Cc1cc(CN(CC(=O)OC(C)(C)C)CC(=O)OC(C)(C)C)nc(CN(CC(=O)OC(C)(C)C)CC(=O)OC(C)(C)C)c1 | > 100 µM | 
20 | O=C(NNC(=O)c1nsc2ccccc12)c1ccc(Cl)cc1 | 46.2 µM | 
21 | CN(C)Cc1cc(/C=C/C(=O)c2ccc(Cl)c(Cl)c2)cc(CN(C)C)c1O | 28.7 µM | 
22 | Oc1c(I)cc(I)cc1CN(Cc1ccccn1)Cc1ccccn1 | 27 µM | 0.714 µM
23 | CNC(=O)Nc1ccccc1 | > 100 µM | 

Row | SMILES | TGI | GI50
24 | Cn1c(=O)cc(N2CCCC2)[nH]c1=O | > 100 µM | 
25 | Cc1ccc(S(=O)(=O)Nn2c(O)c(C#N)c(-c3ccc(N(C)C)cc3)c(C#N)c2=O)cc1 | > 50 µM | 
26 | C=C(CN(C)C)C(=O)c1ccc(Oc2ccccc2)cc1 | 52.9 µM | 
27 | CC(=O)[O][Bi]([c]1ccccc1)[c]1ccccc1 | 29.9 µM | 16.2 µM
28 | CCOP(=O)(OCC)C(F)(F)Cc1cnc(C)c2c1COC(C)(C)O2 | > 10 µM | 
29 | CC(C)(C)c1cc(-c2nc3c(F)c(F)c(F)c(F)c3[nH]2)cc(C(C)(C)C)c1O | > 100 µM | > 100 µM
30 | COC(=O)c1ccc(NCC2=CC(=O)C=CC2=O)cc1 | 31.6 µM | 
31 | Clc1ccc2c(NCCNc3nc(N4CCCC4)nc4ccccc34)ccnc2c1 | 3.88 µM | 1.55 µM
32 | CC[CH2][Sn]([CH2]CC)([O]C(=O)Cc1ccc(F)cc1)[O][Sn]([CH2]CC)([CH2]CC)[O]C(=O)Cc1ccc(F)cc1 | 2.55 µM | 1.28 µM
33 | Fc1cccc(-c2[nH]nc3nc(Nc4cccnc4)sc23)c1 | > 100 µM | > 100 µM
34 | COC(=O)C(=O)C(C(=O)OC)C(=O)C(=O)Nc1cc(Cl)c(Cl)cc1Cl (stereo unspecified) | > 100 µM | 
35 | C/C(=N/NC(N)=S)C(CN(C)C)C(C1=C(O)c2ccccc2OC1)c1ccccc1 (stereo unspecified) | > 100 µM | 
36 | ClCCN(CCCl)c1ccc(CNCCCNCc2ccc(N(CCCl)CCCl)cc2)cc1 | > 100 µM | 
37 | Cc1ccc(C2SCC(=O)N2NC(=O)c2ccncc2)s1 (stereo unspecified) | > 100 µM | 
38 | C=C1C(=O)O[C@H]2[C@H]1CC/C(COC(=O)NCc1cc(OC)cc(OC)c1)=C\CC[C@@]1(C)O[C@@H]21 | 17.8 µM | 4.72 µM
39 | COc1cc(N2CCC(N3CCN(C)CC3)CC2)ccc1Nc1ncc(Cl)c(Nc2ccccc2S(=O)(=O)C(C)C)n1 | 11.5 µM | 1.33 µM
40 | N#CCc1nc(-c2cc3c(ccc4ccccc43)oc2=O)cs1 | > 100 µM | 
41 | c1cc(NC2=NCCO2)c2c(c1)OCO2 | > 100 µM | 
42 | COC1CC(OC)C(O)C(CO)O1 (stereo unspecified) | > 100 µM | 
43 | O=C(O)c1ccccc1Nc1ccc2nnc(-c3ccncc3)n2n1 | 23.6 µM | 10.6 µM
44 | O=C1C[C@H](CCC(=O)OCc2ccccc2)NC(=O)C[C@H](CCC(=O)OCc2ccccc2)NC(=O)C[C@H](CCC(=O)OCc2ccccc2)N1 | > 100 µM | 
45 | CCOC(=O)N1C=CC(=C2C(=C3C=CN(C(=O)OCC)C=C3)C(=C3C=CN(C(=O)OCC)C=C3)C2=C2C=CN(C(=O)OCC)C=C2)C=C1 | 69.6 µM | 
46 | CNC(=O)CN1CCC(Oc2cc3c(Nc4cccc(Cl)c4F)ncnc3cc2OC)CC1 | 11.3 µM and > 10 µM | < 0.01 µM and 0.0166 µM

Row | SMILES | TGI | GI50
47 | COC1=CC(=O)C2C(C1=O)C(c1ccc(OC)c(OC)c1)[C@H]2C (stereo partly specified) | > 100 µM | 
48 | Cn1c(=O)c2c(nc3n(C)c(=O)c4ccccc4n23)n(C)c1=O | > 100 µM | 
49 | O=C1OC(CS(=O)(=O)c2ccccc2)CC1O (stereo unspecified) | > 100 µM | 
50 | CSC1(CC(=O)N2CCCCC2)C(=O)Nc2ccccc21 (stereo unspecified) | > 100 µM | 
51 | COc1ccc(C2=NN(C(=O)c3cccnc3)C(O)(c3cc(F)c(Cl)cc3Cl)C2)cc1OC (stereo unspecified) | > 100 µM | 
52 | O=C(O)[C@@H](NS(=O)(=O)c1ccc([N+](=O)[O-])cc1)c1ccccc1 | > 100 µM | 
53 | CCCCCCNCCCNc1c2ccccc2nc2cccc([N+](=O)[O-])c12 | 0.0479 µM and 0.236 µM | 0.0132 µM
54 | COc1ccc(CNC(=O)[C@@H]2CCCN2C(=O)[C@@H]2CCCN2C(=O)[C@H](C(C)C)N(C)C(=O)[C@@H](NC(=O)[C@H](C(C)C)N(Cc2ccccc2)Cc2ccccc2)C(C)C)cc1OC (HELM PEPTIDE1{[CC(C)[C@@H](C(=O)[*:2])N(Cc1ccccc1)Cc1ccccc1].V.[meV].P.P.[COc1ccc(CN[*:1])cc1OC]}$$$$V2.0) | 29.9 µM | 
55 | c1ccc2c(CNCCCCCCCCCCCCNCc3cccc4ccccc34)cccc2c1 | 3.3 µM | 
56 | COC(=O)N/N=C(/Cc1occc(=O)c1O)C(=O)Nc1ccc([N+](=O)[O-])cc1[N+](=O)[O-] | > 100 µM | 
57 | CC1=CC(=O)c2ccc(C)cc2C1=O | 32.1 µM | 
58 | O=C(CC(=O)N1N=C(N(c2ccccc2)c2ccccc2)CC1c1ccccc1)Nc1ccccc1 (stereo unspecified) | > 100 µM | 
59 | COCN1C(=O)[C@@H]2CCCN2C(=O)c2ccc([N+](=O)[O-])cc21 | > 100 µM | 
60 | COc1ccc(C(c2cc3c(cc2O)OCO3)N2CCOCC2)cc1OC (stereo unspecified) | 34.7 µM | 
61 | Cc1cc(=O)[nH]c(NNC(C#N)c2ccco2)n1 (stereo unspecified) | > 100 µM | 
62 | COC(=O)[C@@]12C=CC(=O)[C@H]3C[C@@H](C(C(C)C)C1)[C@]32OC (stereo partly specified) | > 100 µM | 
63 | O=C(c1cccs1)N(Cc1cccnc1)C(=S)N(Cc1cccnc1)C(=O)c1cccs1 | > 100 µM | 
64 | Clc1ccc(-c2nnc(-c3c(Cl)c(Cl)c(Cl)c(Cl)c3-c3nc4ccccc4[nH]3)o2)cc1 | > 100 µM | 
65 | CC#CC(=O)N1CC[C@@H](n2c(=O)n(-c3ccc(Oc4ccccc4)cc3)c3c(N)ncnc32)C1 | > 100 µM | 18.2 µM
66 | C=C(CN)CO[Si](C)(C)C(C)(C)C | > 100 µM | 
67 | Cc1c(-c2nnc(-c3cc(Cl)c(Cl)cc3Cl)o2)nnn1-c1ccnc2c(C(F)(F)F)cccc12 | > 100 µM | 34.4 µM
